Data from the supplement of paper PMC9446081.
Out of some 39,000 compounds screened, about 220 (0.56%) showed activity. The list shows a part of the results.

system: Escherichia coli K-12 BW25113; assay: relative growth (OD600 normalised to plate interquartile mean) (fraction); higher = less growth inhibition, active = 0.2 or less; conditions: 50 µM; LB; incubation time: overnight (16-24 h)
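Note: static incubation at 37 °C against the wild-type strain, values averaged over two biological replicates.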

SMILES	relative growth
C[C@H]1OC(=O)c2c(O)ccc(O)c2[C@H]1O	inactive: 1.01
O=C(O)c1cc(F)c2nc(N3[C@@H]4CC[C@H]3C[C@@H](OCc3c(-c5ccccc5OC(F)(F)F)noc3C3CC3)C4)sc2c1	inactive: 0.852
C[C@@H]1CN([C@H](C)CO)C(=O)c2cccc(NS(=O)(=O)c3cn(C)cn3)c2O[C@@H]1CN(C)Cc1ccncc1	inactive: 0.958
Cc1ccc(S(=O)(=O)NCCC(=O)O)cc1	inactive: 0.926
CN(C)CCN1C[C@@H]2CN(C(=O)[C@H]3CCOC3)C[C@H]2C1=O	inactive: 1
C[C@H]1CCCCO[C@@H](CN(C)C(=O)C2CCCCC2)[C@@H](C)CN([C@@H](C)CO)C(=O)c2cc(NC(=O)NC3CCCCC3)ccc2O1	inactive: 1.04
COc1ccc2c3c(n(c2c1)C)[C@@H](CO)N(C[C@]13CCN(CC1)C(=O)c1ccccc1F)C(=O)Nc1ccccc1F	inactive: 1.04
CC(=O)O[C@H]1[C@H](Oc2cc(O)cc(O)c2C(=O)c2cccc(O)c2)O[C@H](CO)[C@@H](OC(=O)c2ccccc2)[C@@H]1O	inactive: 0.996
O=C(CCC1=NS(=O)(=O)c2cc(Br)cnc2N1)N1CCOCC1	inactive: 0.998
Cc1ccc(S(=O)(=O)Nc2ccc3c(c2)CC(=O)N([C@H](C)CO)C[C@@H](C)[C@H](CN(C)Cc2ccc(C(F)(F)F)cc2)O3)cc1	inactive: 0.993
C[C@@H]1CN([C@H](C)CO)S(=O)(=O)c2ccc(C#Cc3ccccc3F)cc2O[C@@H]1CN(C)CC1CCOCC1	inactive: 1
C[C@@H]1CN([C@@H](C)CO)C(=O)c2cccc(NS(C)(=O)=O)c2O[C@H]1CN(C)C(=O)Nc1ccccc1	inactive: 0.996
C[C@@H]1CCCCO[C@H](CN(C)C(=O)Cc2ccccc2)[C@H](C)CN([C@@H](C)CO)C(=O)c2cc(NC(=O)C3CCCCC3)ccc2O1	inactive: 0.977
C[C@H]1CN([C@@H](C)CO)C(=O)c2cccc(NS(=O)(=O)c3cccs3)c2O[C@H]1CN(C)S(=O)(=O)c1cn(C)cn1	inactive: 1.01
CC12CCC(=O)C=C1C1CC1C1C2CCC2(C)C1C1CC1C21CCC(=O)O1 (stereo unspecified)	inactive: 1.08
C[C@H](CO)N1C[C@H](C)[C@H](CN(C)S(=O)(=O)c2ccc(C#N)cc2)Oc2ncc(Br)cc2C1=O	inactive: 0.973
CC(C)CC#Cc1ccc2c(c1)O[C@@H](CN(C)C(=O)Cc1ccncc1)[C@H](C)CN([C@H](C)CO)S2(=O)=O	inactive: 0.949
O=C(C[C@@H]1C[C@H]2c3cc(NC(=O)C4CCOCC4)ccc3O[C@H]2[C@H](CO)O1)NCc1ccc2c(c1)OCO2	inactive: 1.01
C[C@@H]1CN([C@H](C)CO)C(=O)c2cc(NC(=O)Cc3ccccc3)ccc2O[C@@H](C)CCCCO[C@H]1CN(C)S(=O)(=O)c1cccs1	inactive: 1.05
C[C@H](CO)N1C[C@H](C)[C@@H](CN(C)S(=O)(=O)c2cn(C)cn2)OCCCC[C@H](C)Oc2ccc(NS(C)(=O)=O)cc2C1=O	inactive: 0.994
N[C@H]1CCN(O)C1=O	inactive: 1.01

SMILES	relative growth
Cc1cc(C(=O)Nc2cccc3c2O[C@@H](CN(C)Cc2ccc(Oc4ccccc4)cc2)[C@@H](C)CN([C@H](C)CO)C3=O)n(C)n1	inactive: 1.02
O=C(C[C@@H]1CC[C@@H]2[C@H](COC[C@@H](O)CN2C(=O)c2cnccn2)O1)NCc1ccc(Oc2ccccc2)cc1	inactive: 0.995
COc1ccc(S(=O)(=O)Nc2ccc3c(c2)C(=O)N([C@H](C)CO)C[C@@H](C)[C@@H](CN(C)C(=O)C2CCCCC2)OCCCC[C@@H](C)O3)cc1	inactive: 1.01
CN(C)c1ccc(O)c2c1CC1CC3C(N(C)C)C(O)=C(C(N)=O)C(=O)C3(O)C(O)=C1C2=O.Cl (stereo unspecified)	active: 0.0626
N=C(N)N/N=C1\CCc2c(C(=N)N)cccc21	inactive: 1.01
C[C@@H]1CN([C@@H](C)CO)C(=O)c2cc(C#CCN(C)C)cnc2O[C@H]1CN(C)Cc1ccc2c(c1)OCO2	inactive: 1.01
CN(C)c1cc(NC(=O)CNC(C)(C)C)c(O)c2c1C[C@H]1C[C@H]3[C@H](N(C)C)C(=O)C(C(N)=O)=C(O)[C@@]3(O)C(=O)[C@H]1C2=O	inactive: 1
CO[C@H]1CN(C)C(=O)c2cc(NS(=O)(=O)CC(F)(F)F)ccc2OC[C@@H](C)N(C(=O)NC(C)C)C[C@@H]1C	inactive: 0.966
Cc1noc(C)c1NC(=O)Nc1ccc2c(c1)C(=O)N(C)[C@H]1CC[C@H](CC(=O)Nc3ccc4c(c3)CCCC4)O[C@@H]1CO2	inactive: 1.02
COc1cc(N2CCC(N3CCN(C)CC3)CC2)ccc1Nc1ncc(Cl)c(Nc2ccccc2S(=O)(=O)C(C)C)n1	inactive: 1.02
C[C@@H]1CCCCO[C@H](CN(C)C(=O)Nc2ccccc2)[C@@H](C)CN([C@H](C)CO)C(=O)c2cc(NS(=O)(=O)c3cccs3)ccc2O1	inactive: 0.963
CCCCOc1cc(C(=O)OCCN(CC)CC)ccc1N.Cl	inactive: 0.955
C[C@@H]1CN([C@@H](C)CO)C(=O)Cc2cc(NS(=O)(=O)c3cn(C)cn3)ccc2O[C@@H]1CN(C)CC1CC1	inactive: 1
CCCCCCCc1c(C)c(O)cc2c1[nH]c1ccccc12	inactive: 1.01
COc1ccc(S(=O)(=O)Nc2ccc3c(c2)CC(=O)N([C@@H](C)CO)C[C@H](C)[C@@H](CN(C)C(=O)NC(C)C)O3)cc1	inactive: 0.988
C[C@@H]1CN([C@H](C)CO)C(=O)Cc2cc(NS(=O)(=O)c3ccc(F)cc3)ccc2O[C@H]1CN(C)S(=O)(=O)c1cccs1	inactive: 1.01
CC1(C)SC2C(NC(=O)C(N)c3ccc(O)cc3)C(=O)N2C1C(=O)O (stereo unspecified)	inactive: 1.1
COc1ccc([C@H]([C@H](Cc2ccccc2)OC(C)=O)N(CC#C[C@@H](O)c2ccccc2)[C@@H](Cc2ccccc2)C(OC)OC)cc1	inactive: 1.05
CCNC1CN(CCCOC)S(=O)(=O)c2sc(S(N)(=O)=O)cc21 (stereo unspecified)	inactive: 1
C[C@@H]1CN([C@@H](C)CO)C(=O)CCCn2cc(nn2)CO[C@H]1CN(C)C(=O)Nc1ccc(C(F)(F)F)cc1	inactive: 0.936
Cc1ccc(S(=O)(=O)Nc2ccc3c(c2)C(=O)N([C@H](C)CO)C[C@H](C)[C@H](CN(C)C(=O)c2ccccc2)OCCCC[C@@H](C)O3)cc1	inactive: 1.01

SMILES	relative growth
C[C@H]1CN([C@@H](C)CO)C(=O)c2cccc(NC(=O)Nc3ccc(C(F)(F)F)cc3)c2O[C@H]1CN(C)Cc1ccncc1	inactive: 0.95
C[C@H]1CN([C@@H](C)CO)C(=O)Cc2cc(NC(=O)CCN3CCOCC3)ccc2O[C@H]1CN(C)S(=O)(=O)c1ccc(Cl)cc1	inactive: 0.996
O=C(C[C@H]1C[C@H]2c3cc(NC(=O)c4ccc5c(c4)OCO5)ccc3O[C@H]2[C@@H](CO)O1)NCCc1ccccc1	inactive: 1.02
Cc1cc(C(=O)Nc2cccc3c2O[C@@H](CN(C)C(=O)NC2CCCCC2)[C@@H](C)CN([C@H](C)CO)C3=O)n(C)n1	inactive: 0.995
COc1ccc(S(=O)(=O)Nc2ccc3c(c2)C(=O)N([C@@H](C)CO)C[C@H](C)[C@@H](CN(C)S(=O)(=O)c2cn(C)cn2)O3)cc1	inactive: 0.966
Cc1ccc(S(=O)(=O)N(C)C[C@H]2Oc3c(NS(=O)(=O)c4cccs4)cccc3C(=O)N([C@H](C)CO)C[C@@H]2C)cc1	inactive: 0.912
C[C@@H]1CN([C@H](C)CO)C(=O)c2cc(NC(=O)Nc3cccc4ccccc34)ccc2O[C@H]1CN(C)Cc1ccc(C(=O)O)cc1	inactive: 0.994
COc1ccc2c3c(n(c2c1)C)[C@H](CO)N(CC1CCOCC1)C[C@]13CCN(CC1)C(=O)c1cnccn1	inactive: 0.981
CCn1cc(C(=O)O)c(=O)c2cc(F)c(N3CCNC(C)C3)c(F)c21.Cl (stereo unspecified)	active: 0.0478
C[C@@H]1CN([C@@H](C)CO)C(=O)c2cc(NC(=O)Nc3ccc(C(F)(F)F)cc3)ccc2O[C@@H](C)CCCCO[C@@H]1CN(C)Cc1ccc(C(=O)O)cc1	inactive: 0.975
C[C@@H]1CCCCO[C@H](CN(C)C(=O)Nc2cccc3ccccc23)[C@H](C)CN([C@@H](C)CO)C(=O)c2cc(NC(=O)C3CCCCC3)ccc2O1	inactive: 1.02
O=C(/C=C/c1ccc(O)c(O)c1)O[C@H]1[C@H](O)C[C@](OC(=O)/C=C/c2ccc(O)c(O)c2)(C(=O)O)C[C@H]1O	inactive: 0.988
CCCCn1nc(C2CC2)nc1Cn1ncnn1	inactive: 0.963
COc1ccc(N2C[C@@H](O)Cn3c2nc2c3c(=O)[nH]c(=O)n2C)cc1	inactive: 0.974
COc1ccc(NC(=O)Nc2ccc3c(c2)C(=O)N([C@@H](C)CO)C[C@H](C)[C@@H](CN(C)Cc2ccc(C(=O)O)cc2)OCCCC[C@H](C)O3)cc1	inactive: 0.994
C[C@H]1CN([C@@H](C)CO)C(=O)Cc2cc(NC(=O)CCC(F)(F)F)ccc2O[C@H]1CN(C)C(=O)Nc1cccc2ccccc12	inactive: 1.03
C[C@H](CO)N1C[C@H](C)[C@@H](CN(C)S(=O)(=O)c2ccc(C(F)(F)F)cc2)OCc2ccccc2-c2c(n(C)c3ccccc23)C1=O	inactive: 1.01
Cc1noc(C)c1NC(=O)Nc1ccc2c(c1)CC(=O)N([C@@H](C)CO)C[C@H](C)[C@@H](CN(C)Cc1ccc(C(F)(F)F)cc1)O2	inactive: 0.918
C=CC[C@H](CC(=O)N(CCO)Cc1ccccc1)C(=O)N[C@@H](COC(=O)[C@@H](CC=C)CC(=O)OC(C)(C)C)Cc1c[nH]c2ccccc12	inactive: 1.09
